For part of its entries the source gives two or more results. This is not the full list of results. An entry can have further records. Results that share an entry are repeats across runs, samples, wells, individuals or studies. One block for each molecule: values may come before it.
System: 313798-341-R-J2-PDC spheroids, viability
Assay: Anticancer human tumor 313798-341-R-J2-PDC patient-derived cervical squamous cell carcinoma cell line growth inhibition [PI3K]
Conditions: spheroids with HUVEC and MSC; for viability, T/C: stronger effect = lower value; for IC50: compound alone
Excerpt: Combinatorial screen of targeted agents with the PI3K inhibitors inavolisib, alpelisib, duvelisib, and copanlisib in multi-cell type tumor spheroids
A high-throughput screen of multi-cell type tumor spheroids was designed to identify active combinations of targeted small molecules and PI3K pathway inhibitors. Complex spheroids include a stromal component modeled by human endothelial cells (HUVEC) and fibroblasts modeled by human mesenchymal stem cells (MSCs). The concentration ranges selected for each drug and investigational agent were based upon clinically achievable concentrations if the clinical Cmax of the agent was known.
Compounds. The drugs and investigational agents: inavolisib (NSC800729), alpelisib (NSC765974), duvelisib (NSC772469), copanlisib (NSC816437), ipatasertib (NSC767898), afuresertib (NSC778305), talazoparib (NSC767125), sapanisertib (NSC764658), selumetinib (NSC741078), tovorafenib (DAY101, NSC766906), vemurafenib (NSC761431), ravoxertinib (NSC781343), sotorasib (NSC818433), MRTX1133 (NSC 836407), abemaciclib (NSC 768073), palbociclib (NSC758247), venetoclax (NSC 766270), SY5609 (NSC837396), enzalutamide (NSC755605), and darolutamide (NSC825331), were obtained from the National Cancer Institute (NCI) Developmental Therapeutics Program Chemical Repository. The FDA-approved anticancer drug set is available from the NCI Developmental Therapeutics Program. […] The stock solutions were prepared in dimethyl sulfoxide (DMSO, Sigma-Aldrich, St. Louis, MO, cat. D2650) at 800-fold the tested concentration and stored at -70 degrees C prior to their use. All drugs and investigational agents were tested over a range starting from a high concentration at or near the clinical Cmax and decreasing in half-log increments. If the clinical Cmax for an agent had not been determined, the highest concentration tested was 10 microM.
Cell Culture. All cells were maintained in an incubator at 37 degrees C and 5% CO2 with 95% humidity. The PDC lines were cultured according to standard operating procedures established by the NCI PDMR (https://pdmr.cancer.gov/sops/default.htm). All PDCs were thawed and cultured in Matrigel-coated flasks prepared with a working solution of 1X Ham's F-12 nutrient mix, without supplementation (Invitrogen, Waltham, MA, cat. 11765054), 100 U/mL penicillin-streptomycin (Invitrogen, cat. 15140122), and 2.5% Matrigel (Corning Inc., Corning, NY, cat. 354248) for the first three passages. The 354836-022-R-J1-PDC, 475296-252-R-J1-PDC, and 997726-040-R-J2-PDC lines were cultured in 6A media, which includes advanced DMEM/F-12 (Thermo Fisher Scientific, cat. 12634028), 10 mM HEPES (Thermo Fisher Scientific, cat. 15630080), 1X GlutaMAX supplement (Thermo Fisher Scientific, cat. 35050061), 0.1 mg/mL primocin (InvivoGen, San Diego, CA, cat. ant-pm-2), 10% defined fetal bovine serum, heat inactivated (HyClone Laboratories Inc., Logan, UT, cat. SH30070.03HI), 50% L-WRN conditioned media (ATCC, cat. CRL-3276), 1.25 mM N-Acetyl-L-cysteine (Sigma-Aldrich, cat. A9165), 10 mM nicotinamide (Sigma-Aldrich, cat. N0636), 1X B-27 supplement (Thermo Fisher Scientific, cat. 17504044), 1X N-2 supplement (Thermo Fisher Scientific, cat. 17502048), and 10 microM Y-27632 dihydrochloride (Tocris Bioscience, Bristol, United Kingdom, cat. 1254). The 624824-186-R-J2-PDC line was cultured in 6C/Colon 1B media, which includes all 6A media components plus 50 ng/mL human EGF recombinant protein (Thermo Fisher Scientific, cat. PHG0311). […]
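Note: spheroids exposed to compounds for seven days.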
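Throughout, for viability, T/C: 100% = DMSO vehicle control viability.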

SMILES: CCN1CCN(Cc2ccc(Nc3ncc(F)c(-c4cc(F)c5nc(C)n(C(C)C)c5c4)n3)nc2)CC1
viability, T/C (compound alone 0.00316 µM): 104, 96.6, 114, 88.8%

IC50: 5.41 µM, 5.14 µM, 8.4 µM, > 10 µM
SMILES: CC1(C)CCC(CN2CCN(c3ccc(C(=O)NS(=O)(=O)c4ccc(NCC5CCOCC5)c([N+](=O)[O-])c4)c(Oc4cnc5[nH]ccc5c4)c3)CC2)=C(c2ccc(Cl)cc2)C1
viability, T/C (compound alone 10 µM): 20, 19.3, 44.6, 102%

SMILES: CC(Nc1ccc2c(c1)OCCn1cc(N3C(=O)OCC3C(F)F)nc1-2)C(N)=O (stereo not given)
viability, T/C (compound alone 0.1 µM): 80.9, 100, 94.1, 82.1, 109, 96.4, 105, 91.9%

SMILES: C[C@@H](NC(=O)c1ncnc(N)c1Cl)c1ncc(C(=O)Nc2cc(C(F)(F)F)c(Cl)cn2)s1
viability, T/C (compound alone 10 µM): 108, 7.04, 97.8, 118%

SMILES: Cn1ncnc1[C@H]1c2n[nH]c(=O)c3cc(F)cc(c23)N[C@@H]1c1ccc(F)cc1
viability, T/C (compound alone 0.000316 µM): 97.4, 105, 87.2, 114%

IC50: > 10 µM, 31.6 nM, < 31.6 nM
SMILES: CC1(C)CCC(Nc2ncc(C(F)(F)F)c(-c3c[nH]c4c(P(C)(C)=O)c(C#N)ccc34)n2)CN1 (stereo not given)
viability, T/C (compound alone 10 µM): 70.1, 32.7, 64.8, 40.1%

SMILES: Cn1cnc2c(F)c(Nc3ccc(Br)cc3Cl)c(C(=O)NOCCO)cc21
viability, T/C (compound alone 0.949 µM): 96.3, 63.5, 86.5, 93.5%
viability, T/C (compound alone 3 µM): 86.1, 22.1, 80.4, 81%

Reference: PubChem BioAssay AID1963982 (Molecular Pharmacology Branch, DTP, NCI, 2024)
